Data taken from PubChem BioAssay AID1347165 (National Center for Advancing Translational Sciences (NCATS), 2019).
Out of some 220,000 compounds screened, about 5,700 (2.6%) were called active. This list was built around the results that the source calls inconclusive (neither active nor inactive); the mix of calls is not that of the screen. Calls follow the shape of the dose curve; as a rule, active = well fitted inhibition curve with a large enough effect; inconclusive = small, poorly fitted or top-dose-only effect; inactive = no such curve, though single readings can be large or run the other way. A potency beside an inconclusive call is a rough fit, not a confirmed value.
Also: nearly all actives have a fitted effect of over 70% in size.
Potency is read from the fitted curve at half-maximal effect; tags tell the direction and shape of the fitted curve.

The molecules below were run against Lysine-specific demethylase 5B (Homo sapiens) (UniProt Q9UGL1) (assay: Primary screen for KDM5B Histone Demethylases FDH-coupled qHTS). Details: FDH-coupled NADH fluorescence (FDH is formaldehyde dehydrogenase); series mostly up to 57.7 µM.
UniProt Q9UGL1, sequence (Q9UGL1 whole entry, looked up): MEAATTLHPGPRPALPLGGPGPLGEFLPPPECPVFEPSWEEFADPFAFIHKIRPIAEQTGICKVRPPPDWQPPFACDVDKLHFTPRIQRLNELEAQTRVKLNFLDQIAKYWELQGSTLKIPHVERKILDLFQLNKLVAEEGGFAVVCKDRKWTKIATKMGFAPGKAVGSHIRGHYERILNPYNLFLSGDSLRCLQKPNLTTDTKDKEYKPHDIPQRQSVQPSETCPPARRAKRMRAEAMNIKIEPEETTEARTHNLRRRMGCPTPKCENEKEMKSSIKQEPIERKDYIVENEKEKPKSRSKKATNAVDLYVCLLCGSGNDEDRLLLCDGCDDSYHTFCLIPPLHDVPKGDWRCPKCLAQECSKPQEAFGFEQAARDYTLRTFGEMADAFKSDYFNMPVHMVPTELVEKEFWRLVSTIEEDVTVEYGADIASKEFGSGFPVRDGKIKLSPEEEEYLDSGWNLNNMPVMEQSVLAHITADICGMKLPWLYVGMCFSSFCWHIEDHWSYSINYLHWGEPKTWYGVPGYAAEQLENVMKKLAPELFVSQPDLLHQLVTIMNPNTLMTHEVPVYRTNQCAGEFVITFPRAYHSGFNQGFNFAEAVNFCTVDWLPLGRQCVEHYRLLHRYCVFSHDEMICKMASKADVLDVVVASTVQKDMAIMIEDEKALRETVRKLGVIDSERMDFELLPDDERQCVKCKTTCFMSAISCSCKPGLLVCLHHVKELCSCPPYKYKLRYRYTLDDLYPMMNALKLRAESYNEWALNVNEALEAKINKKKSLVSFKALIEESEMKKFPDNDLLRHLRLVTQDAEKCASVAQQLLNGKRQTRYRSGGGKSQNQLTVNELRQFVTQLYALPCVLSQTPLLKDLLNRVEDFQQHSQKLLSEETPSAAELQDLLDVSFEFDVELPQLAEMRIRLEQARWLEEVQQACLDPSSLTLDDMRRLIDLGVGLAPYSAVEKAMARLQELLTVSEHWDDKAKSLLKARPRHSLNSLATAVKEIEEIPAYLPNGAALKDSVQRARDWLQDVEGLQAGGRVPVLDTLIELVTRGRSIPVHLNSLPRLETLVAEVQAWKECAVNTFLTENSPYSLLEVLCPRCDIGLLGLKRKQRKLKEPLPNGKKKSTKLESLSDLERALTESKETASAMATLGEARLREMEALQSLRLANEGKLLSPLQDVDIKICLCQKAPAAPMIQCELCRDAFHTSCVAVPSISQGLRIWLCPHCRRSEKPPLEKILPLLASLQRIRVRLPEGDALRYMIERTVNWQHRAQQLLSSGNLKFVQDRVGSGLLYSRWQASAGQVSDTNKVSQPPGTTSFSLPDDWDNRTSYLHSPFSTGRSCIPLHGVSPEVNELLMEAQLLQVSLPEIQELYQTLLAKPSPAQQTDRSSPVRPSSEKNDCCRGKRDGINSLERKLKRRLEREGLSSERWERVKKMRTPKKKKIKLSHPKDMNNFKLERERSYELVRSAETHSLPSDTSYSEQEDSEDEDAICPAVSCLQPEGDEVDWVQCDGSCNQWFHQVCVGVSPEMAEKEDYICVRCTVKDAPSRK
Summary of the method: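 Here, H3K4me3 peptide (12.5 µM in substrate mix) is demethylated by KDM5BΔAP, 200 nM final, after 10 min compound exposure. Formaldehyde product is coupled through FDH (0.25 U/mL in mix) to NADH fluorescence; 30-min ΔRFU feeds dose-response curves.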
In the case of Cc1ccccc1-n1nc(C)c2c1NC(=O)CSC2c1ccccc1C(F)(F)F (stereo unspecified), the Potency is reported as inconclusive: 39.8 µM [inhibitor, single point]. Cc1nc(-c2cccs2)cc([C@H]2CN3CC[C@H]2C[C@@H]3CNS(=O)(=O)c2ccccc2)n1 was tested, and the Potency was “inactive”. COc1ccccc1N1CCN(C[C@H]2CN3CC[C@H]2C[C@@H]3CNC(=O)c2ccc3c(c2)OCO3)CC1 was tested, and the Potency was “inactive”. For COc1cc2c(cc1OCc1ccccc1)N(C(=O)c1cccc3[nH]ccc13)CC21CCN(C)CC1, the Potency was inconclusive: 17.8 µM [inhibitor, partial curve, poor fit]. In the case of Cc1ccccc1CC(=O)N1CCN(C(C)c2nc(C3CC3)no2)CC1 (stereo unspecified), the Potency is reported as “inactive”. With O=C(O)CCC(=O)NCCC1=c2ccccc2=N/C1=C\c1c(O)n(Cc2ccc(F)cc2)c(=S)[nH]c1=O the Potency was inconclusive: 22.4 µM [inhibitor, partial curve, poor fit]. For Cc1ccccc1-c1ccc2n(c1=O)C[C@H]1C[C@@H]2CN(C(=O)Nc2ccc(Cl)cc2)C1, the Potency was active: 31.6 µM. COCCOc1ccc2c(n1)CCNC2 was tested, and the Potency was “inactive”. With CCOc1ccc(CN(CCc2ccc3c(c2)OCO3)Cc2ccc(CC)cc2)cc1 the Potency was inconclusive: 11.2 µM [inhibitor, partial curve, poor fit]. CCOC(=O)C1=C(N)Oc2c(c(=O)oc3ccccc23)C12C(=O)Nc1ccc(Cl)cc12 (stereo unspecified) was tested, and the Potency was “inactive”. In the case of Cc1ccccc1-c1ccc2n(c1=O)C[C@H]1C[C@@H]2CN(C(=O)Nc2cccc(F)c2)C1, the Potency is reported as inconclusive: 31.6 µM [inhibitor, single point]. In the case of Cc1nc(-c2ccccc2)cc([C@H]2CN3CC[C@H]2C[C@@H]3CNS(C)(=O)=O)n1, the Potency is reported as inconclusive: 28.2 µM [inhibitor, partial curve]. In the case of O=C(Nc1ccc(=O)n2c1[C@@H]1C[C@@H](CN(C(=O)NC3CCCCC3)C1)C2)c1ccco1, the Potency is reported as “inactive”. With Cc1cccc(CN2CCN(Cc3ccccc3F)CC2)c1 the Potency was inconclusive: 15.8 µM [inhibitor, partial curve, poor fit]. In the case of Cc1cccc(OC(C)C(=O)NCC2(N(C)C)CCCCC2)c1C (stereo unspecified), the Potency is reported as inconclusive: 28.2 µM [inhibitor, single point]. For CSCC(=O)N1C[C@@H]2C[C@H](C1)c1ccc(-c3ccccc3CN(C)C)c(=O)n1C2, the Potency was active: 31.6 µM. In the case of O=C1Nc2ccccc2CC12CCN2Cc1ccccn1 (stereo unspecified), the Potency is reported as “inactive”. With COc1ccc(CNC[C@H]2C[C@@H]3CCN2C[C@@H]3c2cc(C3CCCC3)nn2C)cc1 the Potency was inconclusive: 31.6 µM [inhibitor, single point]. For CN1CCNc2cc(NCc3ccccc3)ncc2C1, the Potency was inconclusive: 35.5 µM [inhibitor, single point]. For Cc1nc(-c2ccco2)cc([C@H]2CN3CC[C@H]2C[C@@H]3CNC(=O)Nc2ccccc2)n1, the Potency was inconclusive: 31.6 µM [inhibitor, partial curve]. For COc1ccccc1N1CCN(Cc2ccc3c(c2)OCO3)CC1, the Potency was inconclusive: 3.55 µM [inhibitor, partial curve, poor fit]. COCC1CN(C)CC12CCN(Cc1cccnc1)CC2 (stereo unspecified) was tested, and the Potency was inconclusive: 12.6 µM [inhibitor, partial curve]. With COc1ccc(-c2cc3c(cn2)CN(C)CCN3)cc1OC the Potency was active: 35.5 µM. In the case of Cc1cc2ccccc2n1CC(=O)NCC1(CC(=O)O)CCCCC1, the Potency is reported as “inactive”. With CC12CC[C@H]3[C@@H](CCC4(O)C[C@H](O)CCC34/C=N/NC(=O)c3ccccc3O)C1(O)CCC2C1=CC(=O)OC1 (stereo partly specified) the Potency was inconclusive: 39.8 µM [inhibitor, single point]. N#CC1=C(N)Oc2nc(SCc3ccccc3)nc(N)c2C1c1ccccc1F (stereo unspecified) was tested, and the Potency was “inactive”. COc1cc(C(=O)NC[C@H]2C[C@@H]3CCN2C[C@@H]3c2cc(-c3ccco3)nc(C)n2)cc(OC)c1OC was tested, and the Potency was inconclusive: 31.6 µM [inhibitor, single point]. For CCC(CC)c1cc([C@H]2CN3CC[C@H]2C[C@@H]3CNC(=O)c2ccccc2)nc(-c2ccncc2)n1, the Potency was “inactive”. CC[C@H]1CN2CC[C@H]1C[C@@H]2COC(=O)Nc1cccc2ccccc12 was tested, and the Potency was active: 31.6 µM. With CCn1ccc(C(=O)N2CCC3(CC2)c2nccn2-c2ccccc2CN3CC(C)C)n1 the Potency was “inactive”. With CC1(C)C(C(=O)N2CCC3(CC2)Nc2ccccc2NC3=O)C1(C)C the Potency was “inactive”. Cc1nc(-c2ccc(C(F)(F)F)cc2)cc([C@H]2CN3CC[C@H]2C[C@@H]3CNC(=O)C2CCC2)n1 was tested, and the Potency was inconclusive: 25.1 µM [inhibitor, partial curve]. With Cc1nc(-c2ccccc2)cc([C@H]2CN3CC[C@H]2C[C@@H]3CNC(=O)C2CC2)n1 the Potency was inconclusive: 56.2 µM [inhibitor, partial curve, poor fit]. In the case of O=C(COc1ccccc1Cl)N1CCN(CCc2ccccn2)CC1, the Potency is reported as inconclusive: 44.7 µM [inhibitor, single point]. CCOc1ccc(CN(CCc2ccc3c(c2)OCO3)Cc2cccc(Br)c2)cc1 was tested, and the Potency was inconclusive: 11.2 µM [inhibitor, partial curve, poor fit]. For CCC1CO/C(=C(\C(Cl)=C(Cl)Cl)[N+](=O)[O-])N1Cc1ccc(Cl)nc1 (stereo unspecified), the Potency was inconclusive: 39.8 µM [inhibitor, partial curve, poor fit]. For O=C(C1CCCCC1)N1C[C@@H]2C[C@H](C1)c1c(-c3cccs3)ccc(=O)n1C2, the Potency was “inactive”. With O=C(N/N=C/c1c(O)n(-c2ccccc2)c(=S)[nH]c1=O)c1ccccc1 the Potency was inconclusive: 25.1 µM [inhibitor, partial curve, poor fit]. In the case of O=C(c1cnccn1)N1C[C@@H]2C[C@H](C1)c1ccc(-c3cccc(C(F)(F)F)c3)c(=O)n1C2, the Potency is reported as active: 17.8 µM. In the case of Cn1c(O)c(C2=NN(C(=O)CCl)C(c3ccccc3)C2)c(=O)n(C)c1=O (stereo unspecified), the Potency is reported as inconclusive: 15.8 µM [inhibitor, partial curve, poor fit]. In the case of O=C(C1CCCCC1)N1C[C@@H]2C[C@H](C1)c1c(-c3ccc(Cl)cc3)ccc(=O)n1C2, the Potency is reported as “inactive”.
